Common to all, as to type: in vivo
Experiment [1] relates to Botrytis cinerea. As to the kind of experiment: Test Example B: Gray mold on tomato. As to conditions: for Test B (control value class, gray mold on tomato): in vivo. The source says: [Test Example B] Gray Mold on Tomato
Seeds of a test plant (tomato variety: Oogata Fukuju) were planted followed by cultivating until three to five first leaves (true leaves) appeared.

The test system of experiment [2] is Alternaia brassicicola. As to the kind of experiment: Test Example C: Alternaria sooty spot on cabbage. To be noted: for Test C (control value class): Alternaria sooty spot on cabbage; for Test C (control value class, Alternaria sooty spot on cabbage): in vivo. An excerpt:
[Test Example C] Alternaria Sooty Spot on Cabbage
Seeds of a test plant (cabbage variety: Shikidori) were planted followed by cultivating until the cotyledons extended.

Experiment [3] concerns Blumeria graminis f sp. hordei. The experiment can be described thus: Test Example D: Powdery mildew on barley. To be noted: for Test D (control value class, powdery mildew on barley): in vivo. An excerpt:
[Test Example D] Powdery Mildew on Barley
After the sprayed dilutions were dried, conidia of Blumeria graminis f sp. hordei were inoculated to the plants by shaking off.

Experiment [4] concerns Puccinia recondita. The experiment can be described thus: Test Example E: Brown rust on wheat. To be noted: for Test E (control value class, brown rust on wheat): in vivo. An excerpt:
[Test Example E] Brown Rust on Wheat

The test system of experiment [5] is Plasmopara viticola. As to the kind of experiment: Test Example G: Downy mildew on vine. To be noted: for Test G (control value class): 250 ppm spray; for Test G (control value class, downy mildew on vine): 250 ppm, sprayed 2.5 ml/pot before inoculation. The source says:
[Test Example G] Downy Mildew on Vine
Seeds of a test plant (grape variety: Neomuscat) were planted followed by cultivating until three to four first leaves appeared. […] After the sprayed dilutions were dried, a zoosporangia suspension (1-2×10^4 zoosporangia/ml) of Plasmopara viticola was inoculated to the plants by spraying.

[6] abbreviates: Gray mold on tomato, control value=100{1-(n/3)}.
The mark [7] stands for this setting: Powdery mildew on barley, control value=100{1-(n/3)}.
The mark [8] stands for this setting: Brown rust on wheat, control value=100{1-(n/3)}.
Setting [9] is: Downy mildew on vine, 2.5 ml/pot, evaluated 7-10 days after inoculation.
Setting [10] is: evaluated 7-10 days after inoculation.

Results on seven compounds are retold here after patent publication US10299477B2 (priority 2015, dated 2019).

SMILES strings stand for the structures.

For `CCn1c(-c2c(F)cc(OC)cc2F)c(-c2cc(F)cc(F)c2)ccc1=O` [Compound 790], the “Test B (control value class)” value in experiment [1] (setting [6]) is “H (H shows more than 50% of control values)”. For the same compound, the “Test C (control value class)” value in experiment [2] (control value=100{1-(n/3)}) is “H (H shows more than 50% of control values)”. Moreover, in experiment [3] (setting [7]), the “Test D (control value class)” value is “H (H shows more than 50% of control values)”. Further, the “Test E (control value class)” value in experiment [4] (setting [8]) is on record as “H (H shows more than 50% of control values)”. The “Test G (control value class)” value in experiment [5] (setting [9]) is reported as “H (H shows more than 50% of control values)”.

Take `CCOc1cc(F)c(-c2c(-c3cc(F)cc(F)c3F)ccc(=O)n2CC)c(F)c1` [Compound 579]: the “Test B (control value class, gray mold on tomato)” value in experiment [1] is “H (H shows more than 50% of control values)”. The “Test C (control value class, Alternaria sooty spot on cabbage)” value in experiment [2] is “H (H shows more than 50% of control values)”. Also, the “Test D (control value class, powdery mildew on barley)” value in experiment [3] is “H (H shows more than 50% of control values)”. Further, the “Test E (control value class, brown rust on wheat)” value in experiment [4] is given as “H (H shows more than 50% of control values)”. The “Test G (control value class, downy mildew on vine)” value in experiment [5] (setting [10]) is on record as “H (H shows more than 50% of control values)”.

As for `Cn1c(-c2c(F)cccc2F)c(-c2cc(Cl)cc(Cl)c2Cl)ccc1=O` [Compound 452], in experiment [1] (gray mold on tomato, Botrytis cinerea, 250 ppm spray), the “Test B (control value class)” value is “H (H shows more than 50% of control values)”. In addition, the “Test C (control value class)” value in experiment [2] (250 ppm spray) is “H (H shows more than 50% of control values)”. The “Test D (control value class)” value in experiment [3] (powdery mildew on barley, 250 ppm spray) is given as “H (H shows more than 50% of control values)”. Moreover, in experiment [4] (brown rust on wheat, Puccinia recondita, 250 ppm spray), the “Test E (control value class)” value was “H (H shows more than 50% of control values)”. The “Test G (control value class)” value in experiment [5] (downy mildew on vine, Plasmopara viticola, 7-10 days after inoculation) is listed as “L (L shows 50% or less of control values)”.

As for `CCn1c(-c2c(F)cc(F)cc2F)c(-c2cccc(OCC#N)c2Cl)cc(Cl)c1=O` [Compound 810], the “Test B (control value class)” value in experiment [1] (setting [6]) was “H (H shows more than 50% of control values)”. Besides, the “Test C (control value class)” value in experiment [2] (control value=100{1-(n/3)}) is “H (H shows more than 50% of control values)”. In addition, in experiment [3] (setting [7]), the “Test D (control value class)” value was “L (L shows 50% or less of control values)”. Further, in experiment [4] (setting [8]), the “Test E (control value class)” value is reported as “H (H shows more than 50% of control values)”. The “Test G (control value class)” value in experiment [5] (setting [9]) is reported as “H (H shows more than 50% of control values)”.

On to `CCn1c(-c2c(F)cc(Br)cc2F)c(-c2cc(F)ccc2Cl)ccc1=O` [Compound 692], for which the “Test B (control value class, gray mold on tomato)” value in experiment [1] was “H (H shows more than 50% of control values)”. In addition, the “Test C (control value class, Alternaria sooty spot on cabbage)” value in experiment [2] is “H (H shows more than 50% of control values)”. Further, the “Test D (control value class, powdery mildew on barley)” value in experiment [3] was “H (H shows more than 50% of control values)”. Moreover, the “Test E (control value class, brown rust on wheat)” value in experiment [4] was “H (H shows more than 50% of control values)”. Moreover, in experiment [5] (setting [10]), the “Test G (control value class, downy mildew on vine)” value is given as “L (L shows 50% or less of control values)”.

As to `CCn1c(-c2c(F)cc(OC)cc2F)c(-c2ccccc2F)cc(C)c1=O` [Compound 569], in experiment [1], the “Test B (control value class, gray mold on tomato)” value is “H (H shows more than 50% of control values)”. Further, in experiment [2], the “Test C (control value class, Alternaria sooty spot on cabbage)” value is reported as “H (H shows more than 50% of control values)”. Further, the “Test D (control value class, powdery mildew on barley)” value in experiment [3] was “H (H shows more than 50% of control values)”. Moreover, in experiment [4], the “Test E (control value class, brown rust on wheat)” value is on record as “H (H shows more than 50% of control values)”. Moreover, in experiment [5] (setting [10]), the “Test G (control value class, downy mildew on vine)” value was “H (H shows more than 50% of control values)”.

Consider `Cn1c(-c2c(F)cc(F)cc2F)c(-c2cc(F)cc(F)c2)cc(Cl)c1=O` [Compound 804], for which, in experiment [1] (setting [6]), the “Test B (control value class)” value was “H (H shows more than 50% of control values)”. The “Test C (control value class)” value in experiment [2] (control value=100{1-(n/3)}) is on record as “H (H shows more than 50% of control values)”. In experiment [3] (setting [7]), the “Test D (control value class)” value is “H (H shows more than 50% of control values)”. The “Test E (control value class)” value in experiment [4] (setting [8]) is given as “H (H shows more than 50% of control values)”. Also, the “Test G (control value class)” value in experiment [5] (setting [9]) was “L (L shows 50% or less of control values)”.
